# Test results: the supplement of paper PMC4604168 (melanoma cell lines)
# The other results are listed elsewhere or left out. Repeats are few or missing, and single values can be far off.
# How the values were obtained:
# Assay in all cases: cell count relative to DMSO control; melanoma cells; higher = more viable cells
# Details in all cases: library dose: low library concentration; 72 h
# [1] = tested on: WM115
# [2] = tested on: WM1716
# [3] = tested on: WM1745
# [4] = tested on: WM3526
# [5] = tested on: WM3619
# [6] = tested on: WM451Lu
# 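Note: cell number obtained by counting DAPI-stained nuclei in high-throughput microscope images with image analysis software, screen run in 1,536-well plates.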
SMILES,cell count [1] [%],cell count [2] [%],cell count [3] [%],cell count [4] [%],cell count [5] [%],cell count [6] [%]
"O=C(Nc1cc(C(F)(F)F)cc(C(F)(F)F)c1)c1cc(Cl)ccc1O + C=CCn1c(=O)c2cnc(Nc3ccc(N4CCN(C)CC4)cc3)nc2n1-c1cccc(C(C)(C)O)n1 [MK1775] (first compound 0.016 µM, partner dose 0.02 µM)",85.7,98.4,91.3,113,96.8,85
"O=C(O)c1ccc2c(c1)nc(Nc1cccc(Cl)c1)c1ccncc12 + CCCCCCCCCCCC1=C(O)C(=O)C=C(O)C1=O [Embelin] (first compound 0.4 µM, partner dose 1.2 µM)",112,89.9,88.5,92.4,97.6,103
"Cn1nnc2c(C(N)=O)ncn2c1=O [temozolomide] + Cc1ccc(NC(=O)c2cccc(N(C)C)c2)cc1NC(=O)c1ccc(O)cc1 [ZM336372] (first compound 2 µM, partner dose 2 µM)",98.1,75.4,101,53.5,96,112
"O=C(O)[C@@H]1[O][Sb](=[O])([O][Sb]2(=[O])[O][C@H]([C@H](O)CO)[C@H](O)[C@H](C(=O)O)[O]2)[O][C@H]([C@H](O)CO)[C@@H]1O (stereo not given in full) [stibogluconate] + CC(C)(C)c1cnc(CSc2cnc(NC(=O)C3CCNCC3)s2)o1 [SNS-032] (first compound 2 µM, partner dose 0.01 µM)",104,101,97.7,104,105,92.2
"Cc1cc(N2CCOCC2)cc2[nH]c(-c3c(NC[C@@H](O)c4cccc(Cl)c4)cc[nH]c3=O)nc12 + CN(C)S(=O)(=O)c1ccc2c(c1)/C(=C/c1cc3c([nH]1)CCCC3)C(=O)N2 [SU6656] (first compound 0.2 µM, partner dose 0.4 µM)",68.1,90.7,62.6,87.9,79.7,78.9
"O=C(Nc1cc(C(F)(F)F)cc(C(F)(F)F)c1)c1cc(Cl)ccc1O + Nc1ncn([C@H]2C[C@H](O)[C@@H](CO)O2)c(=O)n1 [decitabine] (first compound 0.016 µM, partner dose 0.1 µM)",85.6,85.4,83,98.4,114,88
"Cn1nnc2c(C(N)=O)ncn2c1=O [temozolomide] + O=c1cc(-c2cccc3c2Sc2ccccc2S3)oc(N2CCOCC2)c1 [KU55933] (first compound 2 µM, partner dose 1 µM)",103,88.8,101,98,105,101
"O=C(Nc1cc(C(F)(F)F)cc(C(F)(F)F)c1)c1cc(Cl)ccc1O + Clc1ccc(Nc2nnc(Cc3ccncc3)c3ccccc23)cc1 [vatalanib] (first compound 0.016 µM, partner dose 2 µM)",88.5,100,92.5,110,123,90.5
"O=C(O)[C@@H]1[O][Sb](=[O])([O][Sb]2(=[O])[O][C@H]([C@H](O)CO)[C@H](O)[C@H](C(=O)O)[O]2)[O][C@H]([C@H](O)CO)[C@@H]1O (stereo not given in full) [stibogluconate] + O=C(O)C(=O)Nc1sc2c(c1C(=O)O)CCNC2 [TCS401] (first compound 2 µM, partner dose 1.66667 µM)",95.6,120,77.8,103,98.2,114
"Cc1cc(N2CCOCC2)cc2[nH]c(-c3c(NC[C@@H](O)c4cccc(Cl)c4)cc[nH]c3=O)nc12 + Cn1cncc1[C@@](N)(c1ccc(Cl)cc1)c1ccc2c(c1)c(-c1cccc(Cl)c1)cc(=O)n2C [tipifarnib] (first compound 0.2 µM, partner dose 0.01 µM)",84.1,72.7,79.7,78.5,97.3,87
"O=C(O)c1ccc2c(c1)nc(Nc1cccc(Cl)c1)c1ccncc12 + CN(NC(=O)CC(=O)NN(C)C(=S)c1ccccc1)C(=S)c1ccccc1 [STA4783] (first compound 0.4 µM, partner dose 0.006 µM)",111,75.6,60.9,92.5,80.5,97
"O=C(Nc1cc(C(F)(F)F)cc(C(F)(F)F)c1)c1cc(Cl)ccc1O + Cc1cn(-c2cc(NC(=O)c3ccc(C)c(Nc4nccc(-c5cccnc5)n4)c3)cc(C(F)(F)F)c2)cn1 [nilotinib] (first compound 0.016 µM, partner dose 0.2 µM)",101,98.2,91.4,108,109,93.5
"O=C(O)c1ccc2c(c1)nc(Nc1cccc(Cl)c1)c1ccncc12 + O=S(=O)(c1ccccc1)N(CC(F)(F)F)c1ccc(C(O)(C(F)(F)F)C(F)(F)F)cc1 [T0901317] (first compound 0.4 µM, partner dose 1.4 µM)",86.7,71.3,88.8,62.4,99,88.6
"O=C(Nc1cc(C(F)(F)F)cc(C(F)(F)F)c1)c1cc(Cl)ccc1O + O=c1cc(-c2cccc3c2Sc2ccccc2S3)oc(N2CCOCC2)c1 [KU55933] (first compound 0.016 µM, partner dose 1 µM)",97.3,119,99.1,90.2,105,102
"O=C(O)[C@@H]1[O][Sb](=[O])([O][Sb]2(=[O])[O][C@H]([C@H](O)CO)[C@H](O)[C@H](C(=O)O)[O]2)[O][C@H]([C@H](O)CO)[C@@H]1O (stereo not given in full) [stibogluconate] + COc1ccc2c(c1)CCC1C2CCC2(C)C(NCCCCCCN3C(=O)C=CC3=O)CCC12 [U73122] (first compound 2 µM, partner dose 0.4 µM)",95.7,93.5,92.1,105,108,108
"Cn1nnc2c(C(N)=O)ncn2c1=O [temozolomide] + C[C@@H]1CCN(C(=O)CC#N)C[C@@H]1N(C)c1ncnc2[nH]ccc12 [CP690550] (first compound 2 µM, partner dose 1 µM)",90.9,76.8,93.7,102,104,118
"O=C(O)[C@@H]1[O][Sb](=[O])([O][Sb]2(=[O])[O][C@H]([C@H](O)CO)[C@H](O)[C@H](C(=O)O)[O]2)[O][C@H]([C@H](O)CO)[C@@H]1O (stereo not given in full) [stibogluconate] + CS(=O)(=O)CCNCc1ccc(-c2ccc3ncnc(Nc4ccc(OCc5cccc(F)c5)c(Cl)c4)c3c2)o1 [lapatinib] (first compound 2 µM, partner dose 0.8 µM)",107,127,111,116,97.8,97.6
"Cn1nnc2c(C(N)=O)ncn2c1=O [temozolomide] + Oc1nc(-c2ccc(C(F)(F)F)cc2)nc2c1CSCC2 [XAV939] (first compound 2 µM, partner dose 2 µM)",92.6,61.5,89.9,116,83.5,100
"Cn1nnc2c(C(N)=O)ncn2c1=O [temozolomide] + COc1cc2c(Oc3ccc4[nH]c(C)cc4c3F)ncnc2cc1OCCCN1CCCC1 [cediranib] (first compound 2 µM, partner dose 0.4 µM)",81.8,73.9,90.8,89.8,99.8,96.1
"O=C(O)[C@@H]1[O][Sb](=[O])([O][Sb]2(=[O])[O][C@H]([C@H](O)CO)[C@H](O)[C@H](C(=O)O)[O]2)[O][C@H]([C@H](O)CO)[C@@H]1O (stereo not given in full) [stibogluconate] + Cc1cc(N2CCOCC2)cc2[nH]c(-c3c(NC[C@@H](O)c4cccc(Cl)c4)cc[nH]c3=O)nc12 [BMS536924] (first compound 2 µM, partner dose 0.2 µM)",112,110,89.6,89.1,94.8,94.3
"O=C(O)c1ccc2c(c1)nc(Nc1cccc(Cl)c1)c1ccncc12 + CC1(C)NC(=O)N(c2ccc([N+](=O)[O-])c(C(F)(F)F)c2)C1=O [nilutamide] (first compound 0.4 µM, partner dose 1 µM)",120,101,97.1,82.6,106,124
"Cc1cc(N2CCOCC2)cc2[nH]c(-c3c(NC[C@@H](O)c4cccc(Cl)c4)cc[nH]c3=O)nc12 + Cn1cc(/C=C2\C(=O)Nc3cccnc32)c2ccccc21 [GW441756] (first compound 0.2 µM, partner dose 0.4 µM)",100,118,76.6,108,115,116
"O=C(O)[C@@H]1[O][Sb](=[O])([O][Sb]2(=[O])[O][C@H]([C@H](O)CO)[C@H](O)[C@H](C(=O)O)[O]2)[O][C@H]([C@H](O)CO)[C@@H]1O (stereo not given in full) [stibogluconate] + N#Cc1c(O)c2c(-c3ccc(-c4ccccc4O)cc3)csc2[nH]c1=O [A769662] (first compound 2 µM, partner dose 2 µM)",107,102,112,109,93,104
"O=C(O)[C@@H]1[O][Sb](=[O])([O][Sb]2(=[O])[O][C@H]([C@H](O)CO)[C@H](O)[C@H](C(=O)O)[O]2)[O][C@H]([C@H](O)CO)[C@@H]1O (stereo not given in full) [stibogluconate] + Cc1cc([N+](=O)[O-])ccc1NS(=O)(=O)c1cc(Cl)ccc1Cl [FH535] (first compound 2 µM, partner dose 1 µM)",87.3,94.6,85.1,114,108,102
"O=C(Nc1cc(C(F)(F)F)cc(C(F)(F)F)c1)c1cc(Cl)ccc1O + NC1(c2ccc(-c3nc4ccn5c(=O)[nH]nc5c4cc3-c3ccccc3)cc2)CCC1 [MK2206] (first compound 0.016 µM, partner dose 0.4 µM)",81.8,96.2,91,69.5,104,125
